Results: PubChem BioAssay AID686970 (National Center for Advancing Translational Sciences (NCATS), 2013)
Out of some 360,000 compounds screened, about 6,000 (1.7%) were called active. The shares of active, inactive and inconclusive entries below differ from those in the screen. The call rests on the fitted dose curve; in most records, active means well fitted cell-killing curve with a large enough effect; inconclusive means small, poorly fitted or top-dose-only effect, or effect the other way; inactive means flat fitted curve, though single readings scatter. Potencies of inconclusive entries are left out as doubtful fits.

Experiment: qHTS for induction of synthetic lethality in tumor cells producing 2HG: qHTS for the HT-1080-NT fibrosarcoma cell line;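 further: NT is the 2HG producing partner of a matched IDH1 knockdown line; nearly all actives have a fitted effect of over 55% in size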;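 on activity, negative = less viability: 0% = DMSO-treated cells and -100% = media-only wells without cells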
Conditions: HT-1080-NT fibrosarcoma viability, CellTiter-Glo ATP luminescence, 48 h; activity, negative = less viability: at 46.1 µM (top of the series) unless noted
In short: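 Luminescent CellTiter-Glo readout after 48 hours of compound exposure at 37 degrees C defined viability of HT-1080-NT cells. Activity was normalized to DMSO wells and cell-free media wells; concentration-response curves were fitted and assigned curve classes.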
Potency means the concentration at half of the fitted maximal effect; tags describe the fitted curve by direction and shape.

SMILES | activity, negative = less viability | Potency
CCOC(=O)c1sc(NC(=O)c2ccco2)nc1C | inactive: 10.8% | –
O=C(NC1CCCCC1)C(c1ccc2ncccc2c1)N(Cc1ccc(F)cc1)C(=O)c1cccs1 (stereo not drawn) | – | inconclusive [cytotoxic, single point]
CCC(=O)N1CCc2cc(S(=O)(=O)NC(C(=O)NCc3ccc(C)cc3)C(C)C)ccc21 (stereo not drawn) | inactive: -3.33% | –
Cc1nc2cc(NC(=O)c3ccc(S(=O)(=O)N(C)c4ccccc4)cc3)ccc2o1 | – | inconclusive [cytotoxic, partial curve]
COc1cc2ccccc2cc1C(=O)N1CCc2ccccc21 | – | inconclusive [cytotoxic, single point]
CC(=O)Nc1ccc(C(=O)NNC(=O)CCc2ccccc2)cc1 | – | inconclusive [rising, partial curve, poor fit]
CCCCOc1ccc(S(=O)(=O)n2c(C)nc3ccccc32)cc1 | – | inconclusive [cytotoxic, single point]
CCCn1c(=O)c2c(nc3n2CCCN3Cc2ccccc2)n(C)c1=O | inactive: -7.02% | –
CC(C)(C)n1nc2c(c1NC(=O)c1c(F)cccc1F)CS(=O)(=O)C2 | inactive: 0.688% | –
OCC1(Cc2cccc(C(F)(F)F)c2)CCN(Cc2cc(F)cc(F)c2)CC1 | – | active: 18.4 µM
Cc1cc(C)c2c(N)c3ccccc3nc2n1 | – | inconclusive [cytotoxic, single point]
CCC12CN3CCN(CC(C3)/C1=N\NC(=O)c1ccc(F)cc1)C2 | inactive: -6.95% | –
COc1cccc(-c2cnc3c(NC=O)cc(-c4ccc(N(C)C)cc4)cn23)c1 | – | inconclusive [cytotoxic, single point]
O=C(NNc1nc(Nc2ccccc2)nc(N2CCOCC2)n1)Nc1ccc(Cl)cc1 | – | inconclusive [cytotoxic, single point]
O=C(CSc1ccc(C(F)(F)F)cc1[N+](=O)[O-])Nc1ccc2ccccc2c1 | – | inconclusive [cytotoxic, single point]
O=c1c2cc(N3CCOCC3)ccc2[nH]c(=S)n1Cc1cccc(Cl)c1 | inconclusive: -24.8% [cytotoxic] | –
CN1\C(=C/C=C/C=C/C=[N+](C)C)C(C)(C)c2ccccc21 | – | inconclusive [cytotoxic, single point]
CCOc1ccc(C)cc1S(=O)(=O)n1nc(C)cc1C | – | inconclusive [rising, single point]
CC(=O)SC(C[N+](=O)[O-])c1cn(C(C)=O)c2ccccc12 (stereo not drawn) | inactive: -1.77% | –
Cc1nn(C)c(C)c1NC(=O)COc1ccc(F)cc1Br | – | active: 13 µM
O=C(Nc1nc2ccc(SC(F)F)cc2s1)c1ccc(NS(=O)(=O)c2ccc(F)c(F)c2)cc1 | – | inconclusive [cytotoxic, single point]
CCOc1ccccc1Nc1cc(C)nc2ccc(C)cc12 | – | inconclusive [cytotoxic, single point]
COc1ccc(C(O)c2nc3ccccc3n2C(C)C)cc1 (stereo not drawn) | – | inconclusive [cytotoxic, single point]
O=C(Cn1nnc2ccccc21)c1ccccc1 | inactive: -6.83% | –
O=C(NCCC1CCCCN1S(=O)(=O)c1ccc(F)cc1)C(=O)NCC1CCCO1 (stereo not drawn) | inactive: -3.12% | –

SMILES | activity, negative = less viability | Potency
Cc1ccc2c(c1)c1c(n2CC(O)CN2CCCCCC2)CCCC1 (stereo not drawn) | – | inconclusive [cytotoxic, single point]
Cc1ccc2nc3c(c(N)c2c1)CCN3C | – | inconclusive [cytotoxic, single point]
C[C@@H]1CN([C@H](C)CO)C(=O)c2cc(NS(=O)(=O)c3ccc(F)cc3)ccc2O[C@@H]1CN(C)Cc1ccc(Cl)c(Cl)c1 | – | active: 23.1 µM
CCOc1cc(/C=C\[N+](=O)[O-])ccc1OCC(=O)Nc1ccccc1C | – | active: 2.91 µM
Cc1cc(-c2sccc2Br)nc(-n2cccc2)n1 | inconclusive: -11.7% [cytotoxic] | –
CCC(C)C(NC(C)=O)C(=O)NC(=O)NC(c1ccccc1)c1ccccc1 (stereo not drawn) | inconclusive: 31.6% | –
COc1ccc2c(c1)NC(C)(C)C=C2C | inactive: -13.5% | –
CN1C(=O)C(N=Nc2ccc([N+](=O)[O-])cc2)SC1=S (stereo not drawn) | inconclusive: -28.3% [cytotoxic] | –
CC(OC(=O)c1ccc(Cl)nc1)C(=O)Nc1ccc2c(c1)OCO2 (stereo not drawn) | inactive: 1.73% | –
O=C(NC1CCCCC1)C(c1cccs1)N(C(=O)c1ccccn1)c1ccccc1 (stereo not drawn) | inactive: 6.93% | –
O=C(C[C@@H]1C[C@H]2c3cc(NC(=O)C4CCC4)ccc3O[C@H]2[C@@H](CO)O1)NCc1ccc(-c2ccccc2)cc1 | – | inconclusive [cytotoxic, partial curve]
Nc1ccccc1SC(CC(=O)c1ccccc1)c1ccccc1 (stereo not drawn) | – | inconclusive [cytotoxic, single point]
O=C(Nc1ncc([N+](=O)[O-])s1)c1cccs1 | – | active: 23.1 µM
COc1cccc(Nc2nc(C(N)c3ccccc3Cl)cs2)n1 (stereo not drawn) | – | inconclusive [cytotoxic, single point]
C[C@@H]1CN([C@@H](C)CO)S(=O)(=O)c2ccc(Br)cc2O[C@H]1CN(C)Cc1ccccn1 | inactive: -9.12% | –
Cc1ccc(C(=O)/C=C/NNC(=O)c2ccccc2O)cc1 | inactive: -23.9% | –
O=C(CNC(=S)N(Cc1ccccc1)Cc1ccccc1F)NCc1ccccc1 | inactive: -11.4% | –
CC(C)NC(=O)c1cc(C2CCCCN2S(=O)(=O)c2ccc(C#N)cc2)on1 (stereo not drawn) | inactive: -0.848% | –
COc1ccccc1CNC(=O)c1cc(-c2cc(Cl)ccc2C)n[nH]1 | – | inconclusive [cytotoxic, single point]
O=C(CC(O)c1ccccc1)Nc1ccccn1 (stereo not drawn) | inactive: 3.23% | –
Oc1ccccc1-c1nc(NCc2cccnc2)c2ccccc2n1 | – | inconclusive [cytotoxic, single point]
COc1ccc(OCCN2CCN(C(=O)c3ccc(OC)c(OC)c3)CC2)cc1 | inactive: -8.92% | –
CCOC(=O)c1[nH]c(C)c(C(=O)NCc2ccc(Cl)cc2)c1C | – | inconclusive [cytotoxic, single point]
C#Cc1ccc(CN2CCC(C(=O)Nc3ccc(Oc4ccccc4)nc3)CC2)cc1 | inactive: -29.7% | –
CCOc1ccc(CN(C)C(=O)CCl)cc1 | – | inconclusive [cytotoxic, single point]

SMILES | activity, negative = less viability | Potency
COCCNC(=O)/C(C#N)=C/C=C/c1ccccc1[N+](=O)[O-] | – | inconclusive [cytotoxic, partial curve]
Cc1ccc(C(=O)c2oc3ccccc3c2NC(=O)c2cc(-c3ccccc3O)n[nH]2)cc1 | – | active: 16.4 µM
CN(C)S(=O)(=O)c1cc(NC(=O)CSc2ncc(C(F)(F)F)cc2Cl)ccc1Cl | – | inconclusive [cytotoxic, single point]
CCCCNC(=O)C1C(c2ccccc2)=Nc2ccccc2N1C(=O)c1ccc(C(F)(F)F)cc1 (stereo not drawn) | – | inconclusive [cytotoxic, partial curve]
N/C(=N\OC(=O)CCCc1ccccc1)c1ccccc1Cl | inactive: 29.9% | –
CCc1cccc(C)c1NC(=O)CSc1nnc(CCCOc2ccc(Cl)cc2Cl)n1C | inactive: -22.4% | –
O=C(Nc1cccc(-c2cccc(Cl)c2)c1)C1CCN(CC2CCOC2)CC1 (stereo not drawn) | – | active: 18.4 µM
Cc1cc(C)c(CN2CCC(CO)(CCOc3ccccc3)CC2)cc1C | – | inconclusive [cytotoxic, single point]
Cc1c(C(=O)C(=O)N2CCCc3ccccc32)c2ccccc2n1C | – | active: 8.2 µM
CC1(Cc2ccccc2Cl)C(=O)Nc2c(Cl)ccc(Cl)c21 (stereo not drawn) | – | inconclusive [cytotoxic, single point]
NC(=O)CC(NC(=O)Cc1cccc2ccccc12)c1ccc(NCCOc2ccccc2)c([N+](=O)[O-])c1 (stereo not drawn) | – | inconclusive [cytotoxic, single point]
O=C(CN1CCN(S(=O)(=O)c2ccccc2F)CC1)NC1CCCC1 | inconclusive: -14.6% [cytotoxic] | –
O=C(N/N=C/c1cccc(Oc2ccccc2)c1)c1ccncc1 | inactive: -1.11% | –
CC1(C(=O)NCc2ccc(F)c(F)c2)Cc2c(-c3ccc4c(c3)OCO4)ccnc2O1 (stereo not drawn) | – | inconclusive [cytotoxic, full curve]
CCCS(=O)(=O)NC(=O)C1(C)CCCN(C(=O)c2ccc(OC)cc2OC)C1 (stereo not drawn) | – | inconclusive [rising, single point]
O=C(NC1CCCCCC1)c1cc(S(=O)(=O)N2CCOCC2)ccc1N1CCCCC1 | – | inconclusive [cytotoxic, single point]
Cc1ccc2oc3c(c(=O)c2c1)C(c1cccc(Br)c1)N(Cc1ccco1)C3=O (stereo not drawn) | inactive: 9.05% | –
C=CCc1ccccc1OCC(O)CN1CCN(c2ccccc2OC)CC1 (stereo not drawn) | – | inconclusive [cytotoxic, single point]
CC1(C)CC(=O)C2=C(C1)c1c(ccc3ncccc13)NC2c1cccs1 (stereo not drawn) | – | active: 3.26 µM
Cc1cccc(NCc2nnc(-c3ccccc3)o2)c1C | inactive: -16.5% | –
C#CCOCCOCCOCCNc1nc(N2CCN(C(=O)CCCCCCCCCCNC(=O)[C@H](CCCCN)n3cc(CCO)nn3)CC2)nc(N2CCN(C(=O)CCCCCCCCCCNC(=O)[C@H](CCCN=C(N)N)n3cc(C[C@@H](C)CC)nn3)CC2)n1 | – | inconclusive [cytotoxic, single point]
COc1ccc(NC(=O)C(c2ccccc2)n2c(=O)c(-c3cc4ccccc4[nH]3)nc3ccccc32)cc1 (stereo not drawn) | – | inconclusive [cytotoxic, partial curve, poor fit]
CCN(CC)c1ccc(N)cc1 | – | active: 8.2 µM
